PubChem BioAssay AID588453 (National Center for Advancing Translational Sciences (NCATS), 2011)
Hit rate of the full screen: of about 390,000 compounds, about 4,000 (1%) were called active. The inconclusive results got no clear call from the source; some entries with a clear call stand among them for comparison. Calls come from the whole dose curve; as a rule, active = well fitted inhibition curve with a large enough effect; inconclusive = small, poorly fitted or top-dose-only effect; inactive = no such curve, though single readings can be large or run the other way. Where the call is inconclusive, the potency comes from a doubtful curve fit.

target: Thioredoxin reductase 1, cytoplasmic (Rattus norvegicus) (UniProt O89049); test: qHTS Assay for Inhibitors of Mammalian Selenoprotein Thioredoxin Reductase 1 (TrxR1): qHTS; conditions: recombinant rTrxR1, NADPH fluorescence consumption, selenite substrate; series mostly up to 114 µM; note: nearly all actives have a fitted effect of over 65% in size
UniProt O89049, sequence (O89049 whole entry, looked up): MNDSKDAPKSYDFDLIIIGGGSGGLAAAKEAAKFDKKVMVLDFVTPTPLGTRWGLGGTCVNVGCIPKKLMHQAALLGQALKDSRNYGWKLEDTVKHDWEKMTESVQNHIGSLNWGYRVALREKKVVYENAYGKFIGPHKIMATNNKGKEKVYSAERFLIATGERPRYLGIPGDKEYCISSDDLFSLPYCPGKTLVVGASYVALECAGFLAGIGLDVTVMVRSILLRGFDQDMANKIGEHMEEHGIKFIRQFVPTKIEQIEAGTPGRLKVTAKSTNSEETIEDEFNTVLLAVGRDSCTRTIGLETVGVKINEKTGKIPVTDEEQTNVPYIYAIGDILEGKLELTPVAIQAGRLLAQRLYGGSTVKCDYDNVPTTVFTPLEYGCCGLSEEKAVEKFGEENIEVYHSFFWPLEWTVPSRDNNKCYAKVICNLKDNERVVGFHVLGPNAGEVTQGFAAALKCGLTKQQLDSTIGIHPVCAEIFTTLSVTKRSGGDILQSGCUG
Procedure, shortened: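 Rat TrxR1 (90 nM in the dispensed reagent) was pre-reduced with 400 uM NADPH for 5 min at room temperature, then incubated with compound for 15 min. After 400 uM selenite was added, NADPH fluorescence (Ex 340/Em 450 nm) was followed for 8 min.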
Potency is the fitted concentration of half-maximal effect; tags give direction and shape of the fitted curve.

Structure (SMILES)	Potency
O=C1OC(Nc2ncccn2)c2ccccc21 (stereo unspecified)	inactive
Cc1cccc(NC(=O)C(=O)NCC(c2cccnc2)N2CCN(Cc3ccccc3)CC2)c1 (stereo unspecified)	inactive
CCC(=O)NC(=S)Nc1cccc(NC(=O)c2ccccc2)c1	inconclusive: 20 µM [inhibitor, single point]
CCOc1ccc(/C(O)=C2/C(=O)C(=O)N(c3ccccn3)C2c2ccc(Cl)cc2)c(C)c1 (stereo unspecified)	inconclusive: 70.8 µM [inhibitor, partial curve, poor fit]
CC(=O)Nc1c(OC(C)=O)ccc2c(C)cc(=O)oc12	inconclusive: 79.4 µM [inhibitor, single point]
O=S1(=O)C=C(Sc2nc3cc(Cl)ccc3o2)c2ccccc21	active: 2.82 µM
O=C(Nc1ccc(C(F)(F)F)cc1)C1CCN(S(=O)(=O)c2ccc(N3CCCC3=O)cc2)CC1	inactive
COc1ccc(S(=O)(=O)N2CCN(C(=O)c3cc(-c4ccc(Br)cc4)n[nH]3)CC2)cc1OC	inactive
Cc1nc(CN(C)C(=O)CC2C(=O)NCCN2Cc2ccc(F)cc2)cs1 (stereo unspecified)	inconclusive: 31.6 µM [inhibitor, full curve]
O=C1CCN(C(=O)Nc2cccc(Cl)c2)N1	inconclusive: 25.1 µM [inhibitor, single point]
CCC(=O)Nc1ccc(Cl)c(NC(=S)NC(C)=O)c1	inconclusive: 89.1 µM [inhibitor, partial curve, poor fit]
CCOC(=O)/C(C(C)=O)=C1\OC(=O)c2ccccc21	inconclusive: 11.2 µM [inhibitor, full curve]
CC(C)(C)c1cc(CNC2CS(=O)(=O)C[C@@H]2O)cc(C(C)(C)C)c1O (stereo partly specified)	inconclusive: 31.6 µM [inhibitor, partial curve, poor fit]
O=C(O)CN1C(=O)/C(=C\c2cc(Br)ccc2OCc2ccc(Cl)cc2)SC1=S	inconclusive: 44.7 µM [inhibitor, partial curve]
CCCCNC(=O)N1CCc2[nH]c3ccccc3c2C1	inconclusive: 22.4 µM [inhibitor, full curve]
O=C1/C(=C\c2ccc(Cl)cc2)CCC1CNc1ccc(Cl)cc1 (stereo unspecified)	active: 7.94 µM
O=c1oc2c(CN3CCCCC3)c(O)ccc2c2c1CCCCC2	inconclusive: 70.8 µM [inhibitor, single point]
CCCS(=O)(=O)NCCc1sc2nc(-c3ccc(Cl)cc3)nn2c1C	inactive
COc1ccc(Cl)cc1NC(=O)CN1C(=O)NC(Cc2c[nH]c3ccccc23)C1=O (stereo unspecified)	inconclusive: 2.82 µM [inhibitor, partial curve, poor fit]
CC(=O)[C@@H]1[C@@H](C(=O)c2ccc(C)cc2)[C@]2(C(=O)Nc3ccccc32)[C@H]2C=Cc3cc(F)ccc3N12	inconclusive: 35.5 µM [inhibitor, single point]
CCOC(=O)c1cc(-c2ccco2)nc2c1c(C)nn2CCC#N	inconclusive: 22.4 µM [inhibitor, single point]

Structure (SMILES)	Potency
CN1CCN(C(=S)C(=O)Nc2ccc(Br)cc2)CC1	inactive
COc1ccc(C(=O)C2CCCN(C(=O)c3ccc(CSC)o3)C2)cc1F (stereo unspecified)	inconclusive: 79.4 µM [inhibitor, single point]
CC(=O)Oc1cc(O)c2c(c1)OC(c1ccc(OC(C)=O)c(OC(C)=O)c1)C(OC(C)=O)C2=O (stereo unspecified)	inconclusive: 17.8 µM [inhibitor, partial curve]
O=C1CSC(c2ccc(Cl)cc2)N1C1CCCCC1 (stereo unspecified)	inactive
CCOC(=O)COc1ccc2cc(C(=O)OCC)c(=O)oc2c1	inconclusive: 89.1 µM [inhibitor, single point]
Cc1ccc(S(=O)(=O)CCC(=O)Nc2cccc([N+](=O)[O-])c2)cc1	inconclusive: 10 µM [inhibitor, full curve]
C=CC(=O)N=c1sc2ccccc2n1-c1ccccc1	inconclusive: 22.4 µM [inhibitor, partial curve]
Cc1ccc(O)c(CNc2ccc(S(=O)(=O)Nc3nccs3)cc2)c1	inconclusive: 17.8 µM [inhibitor, full curve]
C#C[C@]1(O)CC[C@H]2[C@@H]3CCC4=Cc5oncc5CC4(C)[C@H]3CCC21C (stereo partly specified)	inconclusive: 22.4 µM [inhibitor, single point]
COc1ccc(C=C2C=C(C(C)(C)C)C(=O)C(C(C)(C)C)=C2)cc1OC	active: 11.2 µM
CCCn1c(CCC(=O)O)ccc1-c1ccc(OC)cc1	inconclusive: 20 µM [inhibitor, partial curve, poor fit]
Cc1ccc2sc(N(CCCN(C)C)C(=O)CCS(=O)(=O)c3ccccc3)nc2c1C	active: 17.8 µM
C/C(CCc1oc2ccc(Br)cc2c1-c1ccc(C)o1)=N/O	active: 17.8 µM
COc1cccc(C2C(C#N)=C(N)OC3=C2C(=O)CC(c2ccco2)C3)c1OCc1ccc(F)cc1 (stereo unspecified)	inconclusive: 39.8 µM [inhibitor, single point]
O=C(O)c1ccc2c3n(nc2c1)-c1ccc(Cl)cc1CO3	inconclusive: 31.6 µM [inhibitor, partial curve, poor fit]
O=C(Nc1ccc(Cl)cc1)[C@@H]1[C@@H]2C(=O)N(c3ccc4ccccc4c3)C(=O)[C@@H]2[C@H]2C=CC=NN21	inconclusive: 63.1 µM [inhibitor, partial curve, poor fit]
Cc1nn(-c2ccc(Cl)cc2)c(N)c1C(O)(CSc1nccn1C)C(F)(F)F (stereo unspecified)	inconclusive: 39.8 µM [inhibitor, single point]
O=S1(=O)c2ccccc2N=NN1Cc1ccc(Cl)cc1	inconclusive: 11.2 µM [inhibitor, partial curve, poor fit]
CCCN1C(=O)c2ccc(C(=O)NCc3ccco3)cc2C1=O	inconclusive: 70.8 µM [inhibitor, partial curve]
Cc1[nH]n(-c2ccccc2)c(=O)c1C(c1cccc([N+](=O)[O-])c1)c1c(C)[nH]n(-c2ccccc2)c1=O	inconclusive: 7.94 µM [inhibitor, partial curve, poor fit]
